From publication PMC4336329 (PLoS ONE, 2015)
Out of some 310,000 compounds screened, about 2,200 (0.71%) showed an effect of 50% or more. Effects have a minus sign here. The list shows a part of the results.

biological target: human ether-à-go-go-related gene (hERG) potassium channel (human, UniProt Q12809); assay: primary screen, population patch clamp on CHO cells stably expressing hERG
Sequence (Q12809 whole entry, looked up): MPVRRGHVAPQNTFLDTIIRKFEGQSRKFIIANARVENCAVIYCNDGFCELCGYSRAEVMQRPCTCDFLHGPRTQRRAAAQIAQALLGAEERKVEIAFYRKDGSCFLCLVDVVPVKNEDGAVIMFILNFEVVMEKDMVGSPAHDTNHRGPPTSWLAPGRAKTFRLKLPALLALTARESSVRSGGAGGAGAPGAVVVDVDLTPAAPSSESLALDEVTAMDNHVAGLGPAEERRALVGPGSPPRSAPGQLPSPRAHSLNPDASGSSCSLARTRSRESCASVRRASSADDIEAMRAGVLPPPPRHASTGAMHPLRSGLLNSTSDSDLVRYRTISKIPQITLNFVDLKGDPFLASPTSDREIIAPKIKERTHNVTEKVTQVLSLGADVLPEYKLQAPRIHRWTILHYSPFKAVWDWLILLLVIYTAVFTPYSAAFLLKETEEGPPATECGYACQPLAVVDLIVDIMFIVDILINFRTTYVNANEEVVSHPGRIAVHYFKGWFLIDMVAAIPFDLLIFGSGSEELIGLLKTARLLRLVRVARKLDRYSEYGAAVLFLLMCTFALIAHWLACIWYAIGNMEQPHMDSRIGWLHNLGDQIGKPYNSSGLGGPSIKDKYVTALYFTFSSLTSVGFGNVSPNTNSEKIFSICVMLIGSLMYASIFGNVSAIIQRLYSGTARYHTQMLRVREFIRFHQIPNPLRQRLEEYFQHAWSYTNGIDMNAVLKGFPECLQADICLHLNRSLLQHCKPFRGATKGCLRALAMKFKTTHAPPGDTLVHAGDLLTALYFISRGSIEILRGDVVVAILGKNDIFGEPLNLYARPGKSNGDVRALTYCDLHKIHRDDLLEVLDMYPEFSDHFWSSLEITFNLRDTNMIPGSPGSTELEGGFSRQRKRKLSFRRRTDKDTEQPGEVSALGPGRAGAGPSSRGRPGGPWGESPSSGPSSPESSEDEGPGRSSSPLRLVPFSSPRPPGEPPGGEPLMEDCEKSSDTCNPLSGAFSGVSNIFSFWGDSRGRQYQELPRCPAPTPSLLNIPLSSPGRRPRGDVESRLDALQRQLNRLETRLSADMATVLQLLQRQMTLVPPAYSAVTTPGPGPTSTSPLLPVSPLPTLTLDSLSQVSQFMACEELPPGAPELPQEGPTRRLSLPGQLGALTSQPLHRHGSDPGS

Row | Compound | hERG current change (%, negative = inhibition) at 1uM [%]
1 | CCCCCCCn1ccc(=N)cc1.I | 6.34
2 | CN1CCN(Cc2nnc3n2-c2ccc(Cl)cc2C(c2ccccc2)=NC3)CC1.O=CO | -31.9
3 | CC(C)c1ccc(NC(=O)CCc2ccccc2)cc1 | 19.8
4 | CC1(C)C2([N+](=O)[O-])CN3CC1([N+](=O)[O-])CN(C2)C3c1ccccc1 (stereo not shown) | 25.6
5 | CC(=O)c1cn(CC(=O)Nc2cccc(C)c2C)c2ccccc12 | 6.03
6 | O=C(NCC1CCCO1)C(=O)NCC1CCCN1S(=O)(=O)c1ccccc1 (stereo not shown) | 13.5
7 | CCOc1ccc(CC(=O)NNC(=S)NC2CCCCC2)cc1OCC | 7.2
8 | OC(C#CCN1CCCCC1)c1ccccc1 (stereo not shown) | 4.14
9 | COc1ccc(CN2CCCC(C(=O)N3CCc4ccccc4C3)C2)cc1OC (stereo not shown) | -37.9
10 | COc1cc(OC)c(OC)cc1CNCCNC(=O)c1nonc1N.Cl | 6.5
11 | Cc1ccc(S(=O)(=O)N/N=C/c2cc(Br)ccc2O)cc1 | 10.3
12 | O=C(O)c1ccc(S(=O)(=O)NCC2CCCCC2)cc1 | 14
13 | Fc1ccc(/C=N/NC(=S)NCCc2ccccc2)cc1F | 14.9
14 | Cc1ccc(S(=O)(=O)N2CCN(c3ncnc4sccc34)CC2)cc1 | 7.75
15 | Cc1ccc(C)c(OCc2nnc(SCC(=O)NC(=O)NCc3ccco3)o2)c1 | 11.5
16 | O=C(NCc1ccco1)c1ccc2c(=O)n(-c3ccccc3)c(=S)[nH]c2c1 | 10.4
17 | C=CCn1c(SCC(=O)N2CCOCC2)nc2ccccc2c1=O | -1.58
18 | CNc1cc(CSc2ccc(Cl)cc2)nc(C)n1 | 14.2
19 | CN(CC(=O)Nc1ccc(Cl)cc1)C(=O)c1sccc1-c1ccccc1 | -4.11
20 | O=c1oc2cc(O)ccc2cc1-c1ccc(F)cc1 | 8.5
21 | COc1cccc(C(=O)C2CCCN(Cc3ccc(OC)c(Cn4cncn4)c3)C2)c1 (stereo not shown) | -20.2
22 | COc1ccc(N(CC(=O)N2CCN(c3cccc(Cl)c3)CC2)S(=O)(=O)c2c(C)noc2C)cc1 | 15.5
23 | Cc1cc(C)cc(NC(=O)COC(=O)CC2CCCC2)c1 | 12.4

Row | Compound | hERG current change (%, negative = inhibition) at 1uM [%]
24 | Cc1cccc(Nc2nc(N3CCOCC3)nc(N3CCOCC3)n2)c1 | 6.58
25 | CCc1ccc(C(C)NC(=O)Cc2ccc(F)cc2)cc1 (stereo not shown) | 14.8
26 | c1csc(-c2ccc(N3CCOCC3)nn2)c1 | -22.4
27 | O=C(O)CONC(=O)c1cc(OCC(F)(F)F)ccc1OCC(F)(F)F | 14.3
28 | CNC(=S)NNS(=O)(=O)c1ccc(OC)cc1OC | 15.5
29 | CCn1cc(C2=NC(C(C)C)CO2)c2ccccc21 (stereo not shown) | 7.95
30 | Cc1nn(C)c(C(=O)N/N=C/c2ccc(-c3ccccc3)cc2)c1Cl | 13.3
31 | COc1cccc(Oc2nc(N)ncc2[N+](=O)[O-])c1 | 11.6
32 | Cc1nnc(SCC(=O)Nc2nc3c(s2)CC(C)CC3)s1 (stereo not shown) | 4.44
33 | O=C(c1ccccc1)N1CCN(c2ccc([N+](=O)[O-])c(N3CCOCC3)c2)CC1 | 3.63
34 | Cc1cc([N+](=O)[O-])nn1CCCC(=O)NC1CCCCC1 | 5.71
35 | O=C(c1ccc(CS(=O)Cc2cccc(Cl)c2)o1)N1CCN(C2CCCCC2)CC1 (stereo not shown) | 7.94
36 | O=C(CC1NCCc2ccccc21)Nc1cccc(Cl)c1 (stereo not shown) | 7.46
37 | CCCCCOC(=O)NCC(O)c1ccccc1 (stereo not shown) | 18.5
38 | COC(=O)c1ccccc1NC(=O)CS(=O)(=O)Cc1nc(-c2ccc(C)cc2)oc1C | 18.5
39 | C=CCn1c(-c2cccc(OC)c2)nc2nc3ccccc3nc21 | 13.5
40 | Cc1ccc(C)c(C(=O)COC(=O)c2ccccc2N2C(=O)C3C4CCC(C4)C3C2=O)c1 (stereo not shown) | 10.2
41 | C=CCOc1c(Br)cc(CNc2nccs2)cc1OC | 11.7
42 | Cc1cc2oc(C(=O)NC3CCS(=O)(=O)C3)c(C)c2cc1C (stereo not shown) | 8.53
43 | COc1ccc(CC(=O)Oc2ccccc2C)cc1S(=O)(=O)N1CCOCC1 | 0.64
44 | COCCOC(=O)C1=C(C)Nc2nc(C)nn2C1c1ccccc1 (stereo not shown) | 16.1
45 | Cc1cccc(NC(=O)CSCC(=O)Nc2ccccc2N2CCCC2)c1 | -45.8
46 | O=C(CSc1nc2ccccc2o1)NCCOc1ccccc1 | 13.2

Row | Compound | hERG current change (%, negative = inhibition) at 1uM [%]
47 | COc1ccc(/C=C(\NC(=O)c2ccccc2)C(=O)N2CCCCC2)cc1OC | 14
48 | Cc1ccc(CC(=O)O/N=C(\N)Cc2ccc([N+](=O)[O-])cc2)cc1 | 6.73
49 | COc1ccc(NC(=O)[C@@H]2CC=C[C@@H]3CCN(C4CCCCC4)C(=O)[C@@H]32)cc1 | 11.5
50 | CCOC(=O)C1CCCN(C2=NC(=O)/C(=C/c3ccc(OC)c(OC)c3)S2)C1 (stereo not shown) | 10.2
51 | Cc1ccc(S(=O)(=O)N2C=CC(C(F)(F)F)=NCC2)cc1 | 17.3
52 | COc1ccc(N2C(=O)CC(NNc3nc4ccccc4s3)C2=O)cc1 (stereo not shown) | 16.6
53 | COc1ccc(C2OC34CCCCC3C(C#N)(C#N)C2(C#N)C(=N)O4)cc1 (stereo not shown) | -0.882
54 | Cc1ccc(CS(=O)Cc2ccc(C(=O)NCc3ccc4c(c3)OCO4)o2)cc1 (stereo not shown) | 7.66
55 | Cc1nnc(SCCCn2c(N3CCN(c4ccccc4)CC3)nc3c2c(=O)[nH]c(=O)n3C)s1 | -0.698
56 | CC(C)CN(C)Cc1c(C(=O)N2CCc3ccccc3C2)nc2ccc(Cl)cn12 | -0.0627
57 | COc1ccccc1CN(CC(=O)NCc1ccc(F)cc1)C(=O)c1csnn1 | 1.78
58 | CNS(=O)(=O)c1cccc(C(=O)OCC(=O)C23CC4CC(CC(C4)C2)C3)c1 | 6.16
59 | O=C(NNC(=O)c1cc2ccccc2cc1O)Nc1ccc(Br)cc1 | 8.9
60 | COc1ccc(NC(=O)/C(C#N)=C\c2ccc(N3CCOCC3)o2)cc1 | 17.2
61 | CCCCCCNc1cc2n(c(=O)n1)CCc1cc(OC)c(OC)cc1-2 | 2.03
62 | CCCCCCC(Cl)(Cn1ccnc1)c1ccccc1.O=[N+]([O-])O (stereo not shown) | 1.75
63 | CCC(Cc1ccccc1)NC(=O)Cn1cccc1C(=O)c1ccccc1 (stereo not shown) | 9.63
64 | Cc1ccc2c(c1)NC(=O)C(CC(=O)N(C)Cc1ccccc1)O2 (stereo not shown) | 7.42
65 | N#C/C(=C(/O)c1cccs1)c1nc2ccccc2[nH]1 | 16.4
66 | CCc1ccc(OCCOC(=O)Nc2ccccc2)cc1 | 12.2
67 | CN(c1ccccc1)c1nc(N)c([N+](=O)[O-])c(NC2CCCCC2)n1 | 13.7
68 | CCOC(=O)c1cc2c(N)c(C(=O)c3cc(C#N)c(SC)nc3C)sc2nc1C | -0.0773
69 | CC(C)(C)N=Cc1c(O)ccc2oc3c(c12)CCCC3 | 28.6

Row | Compound | hERG current change (%, negative = inhibition) at 1uM [%]
70 | CCC(=O)N(CCc1ccccc1C)Cc1cc2cc3c(cc2[nH]c1=O)OCO3 | 2.78
71 | Clc1ccccc1Cn1nnc2c(N3CCCC3)ncnc21 | 8.3
72 | O=C(Cn1cnc2ccccc2c1=O)Nc1cccc(-c2nnc3n2CCCCC3)c1 | 10.7
73 | O=C(N(c1ccccc1)c1ccccc1)n1ccnc1 | -12.5
74 | COc1cccc(NC(=O)CS(=O)(=O)c2cn(CC(=O)N3CCOCC3)c3ccccc23)c1 | 9.9
75 | Cc1ccc(Nc2nc3ccccc3c(=O)s2)cc1C | 11
76 | COc1ccc(/C=C2/C(=O)N(c3nc4ccccc4s3)N=C2CSc2ccc(Cl)cc2)cc1 | 6.32
77 | O=C(O)CCN1CCN(S(=O)(=O)c2ccc3ccccc3c2)CC1 | 14.6
78 | CC(=O)NC1(C(F)(F)F)N=C(c2ccccc2)NC1=O (stereo not shown) | 4.98
79 | COc1ccc(C)cc1S(=O)(=O)N(C)CC(=O)Nc1ccccc1 | 9.02
80 | CCNc1ccc(Br)cc(C(=O)/C=C/c2ccccc2Cl)c1=O | 0.741
81 | O=C(CSc1ncccc1-c1nc2ccccc2[nH]1)NC1CC1 | -0.103
82 | c1ccc(C(c2ccccc2)c2noc(CN3CCN(C4CCCC4)CC3)n2)cc1 | 0.0934
83 | CP(C)(=O)CCC(=O)O | 10
84 | CC(=O)NC(=S)Nc1cc(C(F)(F)F)ccc1N1CCOCC1 | -12.6
85 | Cc1ccc(Sc2cc(C)nc(-c3ccccn3)n2)cc1 | 12.1
86 | Cc1nn(-c2ccccc2)c(Cl)c1C(=O)OC(C)C(=O)Nc1ccc2c(c1)OCO2 (stereo not shown) | 8.84
87 | Cc1ccc2c(c1)sc(-c1ccc(N(C)C)cc1)[n+]2C.[I-] | -18
88 | CCc1cccc(C)c1NC(=O)Nc1c(Br)cnn1C | 14
89 | O=C(CSc1nnc(C2CC2)n1CC1CCCO1)Nc1ccccc1Cl (stereo not shown) | 14.3
90 | CCc1nnc(NC(=O)c2cccc(S(=O)(=O)N3CCCCC3)c2)s1 | 16.6
91 | O=c1[nH]c2cc3c(cc2cc1CN(CCN1CCOCC1)C(=S)NCC1CCCO1)OCO3 (stereo not shown) | -0.702
